# Among all 310,000 compounds or so, about 2,200 (0.71%) showed an effect of 50% or more. Effects have a minus sign here. This is one part of the list.
# Biological target: human ether-à-go-go-related gene (hERG) potassium channel (human, UniProt Q12809)
# Assay: primary screen, population patch clamp on CHO cells stably expressing hERG
# Chain of human ether-à-go-go-related gene (hERG) potassium channel (Q12809 whole entry, looked up): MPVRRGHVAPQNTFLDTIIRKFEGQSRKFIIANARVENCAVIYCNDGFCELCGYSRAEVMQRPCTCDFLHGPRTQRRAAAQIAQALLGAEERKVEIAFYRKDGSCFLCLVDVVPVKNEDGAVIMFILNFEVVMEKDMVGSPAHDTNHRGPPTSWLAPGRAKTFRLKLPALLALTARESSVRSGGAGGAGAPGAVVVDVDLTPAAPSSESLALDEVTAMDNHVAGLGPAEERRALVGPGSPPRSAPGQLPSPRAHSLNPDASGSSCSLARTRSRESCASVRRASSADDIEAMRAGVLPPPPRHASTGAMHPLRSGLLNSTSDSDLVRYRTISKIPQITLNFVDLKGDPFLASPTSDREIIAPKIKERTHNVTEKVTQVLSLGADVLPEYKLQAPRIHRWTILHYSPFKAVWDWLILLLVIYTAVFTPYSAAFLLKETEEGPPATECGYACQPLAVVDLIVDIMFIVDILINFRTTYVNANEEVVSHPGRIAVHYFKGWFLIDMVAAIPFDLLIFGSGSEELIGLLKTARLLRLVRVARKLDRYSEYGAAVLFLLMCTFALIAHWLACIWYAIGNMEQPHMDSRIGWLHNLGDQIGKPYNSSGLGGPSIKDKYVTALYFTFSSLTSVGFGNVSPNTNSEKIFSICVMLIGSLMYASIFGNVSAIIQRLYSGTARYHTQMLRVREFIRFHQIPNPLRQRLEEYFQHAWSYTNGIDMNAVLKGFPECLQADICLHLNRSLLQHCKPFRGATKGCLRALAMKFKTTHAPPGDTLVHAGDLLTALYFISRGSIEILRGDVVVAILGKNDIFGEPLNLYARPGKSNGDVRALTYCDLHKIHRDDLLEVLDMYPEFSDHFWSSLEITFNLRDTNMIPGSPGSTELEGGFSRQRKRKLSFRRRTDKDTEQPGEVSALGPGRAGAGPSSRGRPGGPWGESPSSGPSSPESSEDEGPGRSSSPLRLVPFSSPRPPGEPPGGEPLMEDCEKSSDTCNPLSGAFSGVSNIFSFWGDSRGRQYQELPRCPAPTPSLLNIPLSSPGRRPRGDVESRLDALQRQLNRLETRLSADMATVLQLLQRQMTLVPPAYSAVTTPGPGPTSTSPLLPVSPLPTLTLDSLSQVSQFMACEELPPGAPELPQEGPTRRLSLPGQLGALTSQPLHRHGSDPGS
row,SMILES,"hERG current change (%, negative = inhibition) at 1uM [%]"
1,CCOc1cc(C2C(C(=O)c3ccco3)=C(O)C(=O)N2Cc2ccccc2)ccc1O (centres unmarked),14.5
2,COc1ccc(NC(=O)c2ccc(S(=O)(=O)N(C)C)cc2)cc1,6.38
3,CC1CCN(S(=O)(=O)c2ccc(C(=O)Nc3ccccc3-c3nc4ccccc4[nH]3)cc2)CC1,14.3
4,C/C(=N\Nc1nc2ccccc2[nH]1)c1ccc(Cl)s1,7.51
5,Cn1c(N2CCCC2)nc2c1c(=O)[nH]c(=O)n2C,10.8
6,Cc1cc(CN(C)Cc2ccc(OCC(O)CN(C)Cc3ccccc3)cc2)on1 (centres unmarked),9.75
7,COc1cccc(NC(=O)c2ccccc2-c2nc(-c3cccc(C)c3)no2)c1,9.44
8,COc1ccc(-n2nc(C(=O)NCC(=O)N3CCN(c4ccc(F)cc4)CC3)c3ccccc3c2=O)c(OC)c1,2.68
9,CC(=O)/C(N=Nc1ccc2c(c1)OCCO2)=C(\C)O,10.9
10,Cc1ncc(CN2CCN(CCC(C)C)C(CCO)C2)s1 (centres unmarked),1.93
11,O=C(Nc1ccc(Oc2cccc3ccccc23)cc1)c1ccco1,6.66
12,CCc1ccc2nc(/N=C(\N)NC(=O)c3ccccc3)nc(C)c2c1,9.4
13,CCCn1nnc(NC(=O)c2ccc([N+](=O)[O-])cc2Cl)n1,6.63
14,CCN(C(=O)COC(=O)CSc1cc(C)c2ccccc2n1)c1ccccc1,5.64
15,Cc1cnn(C(=O)c2ccccc2Br)c1,2.16
16,Cc1nc(Cl)sc1C(=O)Nc1ccc(C(F)(F)F)cc1,14
17,CC(=O)N1CCN(S(=O)(=O)c2ccc(S(=O)(=O)NC3CCCCC3)cc2)CC1,6.82
18,Cc1nn(C)c(C)c1NS(=O)(=O)c1ccc(N2CCCC2=O)cc1,13.9
19,CC(=O)Oc1ccc2oc3c(c2c1)C(=O)CCC3,0.512
20,CCCCC(CC)C(=O)Nc1cc(C(=O)NCc2ccc(C)cc2)ccc1N1CCC2(CC1)CC(c1ccccc1)=NO2 (centres unmarked),5.64
21,O=C(CCC(=O)c1ccc(Cl)cc1)OCc1nc2ccsc2c(=O)[nH]1,1.9
22,CCCCn1c(N)c(N(CCC(C)C)C(=O)C2CC(=O)N(c3ccc4c(c3)OCCO4)C2)c(=O)[nH]c1=O (centres unmarked),-3.96
23,Cc1ccc(/C(O)=C2/C(=O)C(=O)N(c3ccccn3)C2c2cccc([N+](=O)[O-])c2)cc1 (centres unmarked),11.1

# Source: PMC4336329 (PLoS ONE, 2015)
